In PubChem BioAssay AID488969 (Vanderbilt High Throughput Screening Facility, 2010) one finds z-score data, which are given here for 112 compounds.

The full ranking holds about 110,000 compounds; the median of “z-score” is about -0.1, and the highest 2% start at about 2. This is one part of the list.

This assay addresses Metabotropic glutamate receptor 8 (Rattus norvegicus) (UniProt P70579). The assay is described as follows: mGluR8 Gi/Go-coupled signaling modulation – cell-based, rat, thallium flux, HTS, primary screen (AID 488969). Conditions: HEK293 rat mGluR8, GIRK (G protein-gated inwardly rectifying potassium channel) thallium flux, FluoZin2; at 10 µM; stronger effect = higher value; submaximal glutamate (EC20) added with thallium.
UniProt P70579, sequence (P70579 whole entry, looked up): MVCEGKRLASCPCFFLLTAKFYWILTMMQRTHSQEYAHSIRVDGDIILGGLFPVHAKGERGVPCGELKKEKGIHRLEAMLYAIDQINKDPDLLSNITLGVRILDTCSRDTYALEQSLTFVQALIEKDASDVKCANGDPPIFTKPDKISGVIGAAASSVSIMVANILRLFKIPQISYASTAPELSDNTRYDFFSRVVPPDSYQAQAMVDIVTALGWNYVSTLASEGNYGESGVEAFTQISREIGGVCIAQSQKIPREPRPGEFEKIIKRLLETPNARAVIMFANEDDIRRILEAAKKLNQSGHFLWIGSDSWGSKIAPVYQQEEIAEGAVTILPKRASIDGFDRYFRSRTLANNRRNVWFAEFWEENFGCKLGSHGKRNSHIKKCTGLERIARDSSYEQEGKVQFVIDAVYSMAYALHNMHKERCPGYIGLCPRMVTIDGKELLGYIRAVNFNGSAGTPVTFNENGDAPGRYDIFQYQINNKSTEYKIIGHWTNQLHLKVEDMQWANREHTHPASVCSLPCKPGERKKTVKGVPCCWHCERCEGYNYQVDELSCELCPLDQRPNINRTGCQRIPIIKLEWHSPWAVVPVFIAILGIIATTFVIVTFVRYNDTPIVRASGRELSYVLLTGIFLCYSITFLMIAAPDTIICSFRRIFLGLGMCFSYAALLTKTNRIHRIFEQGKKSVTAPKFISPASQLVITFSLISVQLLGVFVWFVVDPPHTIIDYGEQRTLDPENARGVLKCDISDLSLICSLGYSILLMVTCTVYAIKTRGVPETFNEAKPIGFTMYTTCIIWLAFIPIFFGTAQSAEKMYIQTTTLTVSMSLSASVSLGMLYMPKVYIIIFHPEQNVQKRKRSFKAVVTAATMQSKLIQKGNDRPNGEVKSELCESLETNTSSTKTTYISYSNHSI
`O=C(NC1CCCC1)c1ccc2nc[nH]c2c1` had a z-score of 0.171.

In turn, `O=C(c1ccc(F)cc1)c1c[nH]c(C(=O)NCc2cccnc2)c1` came in with a z-score of 0.368.

Turning to `Cc1cc(SCC(=O)c2ccccc2)nc(SCC(=O)c2ccccc2)n1`, the z-score was -0.648.

`COc1ccc(Cl)cc1NC(=O)N1CCN(C2CCCCC2)CC1`: the z-score amounted to 0.115.

Compound `Cc1ccc(-c2[nH]nc3c2C(C)C(C#N)=C(N)O3)cc1` (configuration not stated) had a z-score of -0.422.

In turn, `O=C(N/N=C/c1c(Nc2cccc(C(F)(F)F)c2)nc2ccccn2c1=O)c1ccccc1` gave a z-score of -0.0933.

In the case of `COc1ccc(CN2C(=O)/C(=C/c3ccncc3)SC2=S)cc1`, the z-score was -0.151.

On to `CC(=O)c1cccc(NC(=O)c2onc(C)c2Cl)c1`, for which the z-score amounted to 0.062.

In the case of `O=C(CN1C(=O)c2ccccc2C1=O)NCC1CCCO1` (configuration not stated), the z-score is -0.00258.

Consider `CCCC(=O)Nc1ccc(NC(=O)c2ccccc2OC)cn1`, for which the z-score was -0.197.

`COc1ccc(-c2noc(-c3ccccc3F)n2)cc1`: the z-score came to 0.339.

`CCOc1ccc(C(c2c(C)[nH][nH]c2=O)c2c(C)[nH][nH]c2=O)cc1OC`: the z-score is -0.137.

In the case of `CS(=O)(=O)Nc1ccccc1C(=O)NC1CC2CCC1C2` (configuration not stated), the z-score is -0.195.

`COc1ccc(C(=O)Nn2c(C)nnc2-n2nc(C)cc2C)cc1OC` came in with a z-score of -0.154.

The compound `CCCCC(=O)Nc1ccc(N2CCN(C(=O)CC)CC2)cc1` displayed a z-score of -0.0426.

The compound `O=C(Nc1ccc(Cl)cc1)[C@@H]1[C@@H]2C(=O)N(c3ccc(Cl)cc3Cl)C(=O)[C@@H]2[C@H]2C=CC=NN21` displayed a z-score of -0.503.

`COCCCn1c(N)c(-c2nc3ccccc3n2C)c2nc3ccccc3nc21` displayed a z-score of -0.368.

With `CCOC(=O)CCN(Cc1sccc1C)S(=O)(=O)c1ccc(F)cc1`, the z-score is -0.113.

Take `Cc1ccc(S(=O)(=O)N(Cc2ccccc2)c2ccccc2C(=O)NCc2cccnc2)cc1`: the z-score was -0.305.

In turn, `CCOC(=O)CSc1nnc(-c2c[nH]c3ccccc23)n1CC` came in with a z-score of 0.103.

`CC(C)(C)NC(=O)COc1ccc(CNn2nnnc2N)cc1` came in with a z-score of 0.134.

For the compound `O=c1c2c(-c3ccc([N+](=O)[O-])cc3)csc2nc2n1CCC2`, the z-score was -0.688.

`O=C1c2ccccc2C(=O)N1CCCc1nc(-c2cccnc2)no1` yielded a z-score of -0.111.

`COc1ccc(CN(C2CCCC2)S(=O)(=O)c2ccc(-n3cnnn3)c(OC)c2)cc1OC` had a z-score of -0.194.

In the case of `CCC(OC(=O)c1nsc(Cl)c1Cl)C(=O)NCc1cccs1` (configuration not stated), the z-score was 0.3.

Compound `CN(NS(=O)(=O)c1ccccc1)c1nc2ccccc2nc1C(F)(F)F` registered a z-score of -0.586.

Take `CCC(C)N1C(=O)/C(=C/c2c(NCCCOC(C)C)nc3c(C)cccn3c2=O)SC1=S` (configuration not stated): the z-score was 0.0924.

`COc1ccc(/C=C/C(=O)NCC(=O)N/N=C/c2cc(Br)ccc2OC)cc1`: the z-score stood at 0.158.

Consider `COc1ccc(NC(=O)CCCN2C(=O)C3C4C=CC(C4)C3C2=O)c(OC)c1` (configuration not stated), for which the z-score is -0.781.

Turning to `CCc1nc2scc(-c3ccccc3)c2c(=O)n1N`, the z-score is -0.0795.

The compound `Cc1cccc(N2C(=O)SC(SC(=Nc3ccccc3)Nc3ccccc3)C2=O)c1` (configuration not stated) came in with a z-score of 0.0359.

In turn, `O=C(Nc1ccc2c(c1)OCCO2)C1CCN(C(=O)c2ccc(Cl)cc2)CC1` returned a z-score of 0.135.

`CCN1CCC2(CC1)N=C(c1ccc(F)cc1)C(=S)N2C(=O)c1ccc(C(C)(C)C)cc1` showed a z-score of 0.0268.

As for `COc1ccccc1NC(=O)c1cn(C)c(=O)c2cc(OC)c(OC)cc12`, the z-score was 0.0576.

The compound `CC(C)C(NC(=O)c1ccccc1NC(=O)c1ccco1)C(=O)O` (configuration not stated) yielded a z-score of -0.744.

In the case of `Cc1ccc(/C=N/NC(=O)CNC(=O)COc2ccccc2)cc1`, the z-score is -0.0148.

For the compound `COc1ccccc1C/C(N)=N/OC(=O)COc1ccccc1C`, the z-score is -0.177.

The compound `Cn1c(Oc2ccccc2)c(C=O)c2ccccc21` returned a z-score of -0.767.

`COC(=O)c1ccccc1NC(=O)CN(Cc1ccc(Cl)cc1)S(C)(=O)=O` yielded a z-score of -0.28.

The compound `CCOc1cc(NC(=S)Nc2ccccc2OC)c(OCC)cc1NC(=O)c1ccccc1C` came in with a z-score of -0.0989.

In turn, `CCOc1ccc2c(=O)c(Oc3ccccc3)c(C)oc2c1` had a z-score of -0.244.

Compound `COCCNc1ncnc2nc[nH]c12` had a z-score of 0.619.

As to `Cc1nn(C)c(C)c1CN(C)C(=O)c1cc2n(n1)C(C(F)(F)F)CC(c1cccs1)N2` (configuration not stated), the z-score was determined as 0.0534.

The compound `COc1ccc(Cl)cc1NC(=O)c1ccccc1C` gave a z-score of 0.191.

Consider `COCC(=O)Nc1nnc(C2CCCCC2)s1`, for which the z-score is -0.188.

For `COc1cc(C(=O)NCc2ccc(C)cc2)ccc1OCc1c(C)noc1C`, the z-score was -0.694.

Compound `COC(=O)C1(CCSC)NC(c2ccccc2OC)C2C(=O)N(C)C(=O)C21` (configuration not stated) registered a z-score of -0.0404.

The compound `CN(C)C(=S)SCC(=O)Nc1ccc(Cl)cc1Cl` showed a z-score of -0.337.

Consider `Cc1cc(NC(=O)CSc2nnc(Nc3ccccc3)s2)no1`, for which the z-score was -0.129.

Turning to `Cc1cc2c(c(=O)n1CC1CCCO1)C(c1ccco1)C(C#N)=C(N)O2` (configuration not stated), the z-score stood at 0.993.

As for `CCOC(=O)c1c(NC(=S)Nc2cc([N+](=O)[O-])ccc2OC)sc2c1CCCCC2`, the z-score was -0.109.

Regarding `Cc1ccc(-n2nc3ccc(NC(=S)NC(=O)/C=C/c4ccco4)cc3n2)cc1`, the z-score was -0.125.

Regarding `CC(=O)/C(C#N)=C1\NC(=O)C(Cc2ccccc2)S1` (configuration not stated), the z-score was -0.5.

`CCOc1ccc(NC(=O)CC2C(=O)N(c3ccccc3)C(=S)N2Cc2ccccn2)cc1` (configuration not stated) returned a z-score of -0.194.

In the case of `CCOC(=O)c1cc(-c2ccc(Cl)s2)nc2c1c(C)nn2C`, the z-score is 0.0139.

As for `CCOC(=O)C1CCN(S(=O)(=O)c2ccc(OCC(=O)OC)cc2)CC1`, the z-score was determined as 0.845.

With `COc1ccc2occ(C(C)=O)c2c1`, the z-score is -1.2.

For `Cc1cc(Cl)ccc1OCC(=O)N1CC(C)CC(C)C1` (configuration not stated), the z-score is -0.412.

Compound `CC(=O)c1ccccc1OCCn1nnc(-c2ccc(C)cc2)n1` came in with a z-score of -1.03.

For `Cc1cc(Cl)ccc1OCCCC(=O)N1CCN(C)CC1`, the z-score was -0.88.

`CCNC(=S)NCc1ccco1` had a z-score of 0.0142.

The compound `COc1cccc(N2C(=O)C(O)=C(C(C)=O)C2c2ccc(OC)c(OC)c2)c1` (configuration not stated) had a z-score of -0.0218.

Compound `CN(C)c1[nH]c(=O)c(C#N)c2c1CCN2Cc1ccccc1` showed a z-score of 0.289.

As to `CCOC(=O)c1cc2cc(OC)ccc2nc1C`, the z-score was -0.561.

`Cc1nn(Cc2ccccc2Cl)c(C)c1C(=O)Nc1nnc(C2CC2)s1`: the z-score is -0.583.

`O=C(C1CCCN(S(=O)(=O)c2ccccc2[N+](=O)[O-])C1)N1CCCC1` (configuration not stated) had a z-score of 0.116.

On to `O=C(O)c1cc2ccc3ccccc3c2oc1=O`, for which the z-score was -0.0814.

In turn, `C=C(c1ccc(OCCO)cc1)c1ccc(OCCO)cc1` gave a z-score of 0.26.

With `COc1ccccc1NC=C1C(=O)OC(C)(C)OC1=O`, the z-score is -0.201.

In turn, `COC(=O)CSc1nnnn1-c1cccc2ccccc12` registered a z-score of 0.0336.

Regarding `CC(=O)NC(Cc1ccc(C)cc1)C(=O)NC1CCN(c2ncccc2[N+](=O)[O-])CC1` (configuration not stated), the z-score was -0.795.

Compound `Cc1cc(C)n(CCCNC(=O)c2ccc(S(=O)(=O)NCc3ccco3)cc2)n1` had a z-score of -0.419.

Consider `O=C(CCN1C(=O)c2ccncc2C1=O)NCc1ccc(Cl)cc1`, for which the z-score was -0.16.

The compound `Nc1ccc(CN2CCCCCC2)cc1` had a z-score of 0.0779.

Regarding `COc1cccc(NC(=O)/C=C/c2ccccc2[N+](=O)[O-])c1`, the z-score is -0.159.

`O=C(c1oc2ccccc2c1N1CCCCC1)N1CCCCC1` came in with a z-score of -0.448.

For the compound `Cn1c(NC(=O)c2ccccc2C(F)(F)F)cc(=O)n(C)c1=O`, the z-score is -0.131.

As to `Cc1ccc(-n2ncc3c(SCc4ccccc4)ncnc32)cc1`, the z-score was found to be 2.51.

Compound `Cc1ccc(S(=O)(=O)N(C)Cc2ccc(C(=O)NN=C3C4CC5CC(C4)CC3C5)cc2)cc1` returned a z-score of -0.0811.

Regarding `CC1CC(=O)Nc2ccccc2N1S(=O)(=O)c1ccccc1` (configuration not stated), the z-score was -0.117.

Take `Cc1cc(C)cc(N(C(=O)Cc2cccs2)C(C(=O)NC2CCCC2)c2ccc(C)o2)c1` (configuration not stated): the z-score came out at 0.227.

For `CCOC(=O)C1=C(O)/C(=C/c2ccc(OCC(=O)O)c(OC)c2)SC1=Nc1ccc(OCC)cc1`, the z-score is -0.258.

The compound `Cn1c(=NCC(O)COc2ccccc2)sc2ccccc21` (configuration not stated) registered a z-score of 2.27.

On to `NS(=O)(=O)c1cc(C(=O)OCC(=O)NC2CC2)ccc1Cl`, for which the z-score was -0.103.

Turning to `COc1ccc(-c2cn3cc(C)ccc3n2)cc1Br`, the z-score was -0.219.

`CC(=O)c1ccc(Nc2ncnc3c2oc2ccccc23)cc1` had a z-score of 0.117.

The compound `Cn1c(=O)[nH]c(=O)c2c1nc(N1CCOCC1)n2CC(O)COc1ccccc1` (configuration not stated) showed a z-score of -0.1.

`Cc1sc(NC(=O)CCl)c(C(=O)c2ccccc2)c1C` yielded a z-score of -0.412.

In the case of `COC(=O)c1cc2oc(C)cc2n1CC(=O)Nc1cc(C)cc(C)c1`, the z-score was -0.162.

In turn, `COc1ccc(/C=N/n2c(=S)n(C)c3ccccc32)cc1OC` showed a z-score of 0.103.

In turn, `COC(=O)N/N=C/c1cc(C)n(-c2ccccc2)c1C` came in with a z-score of -0.625.

In turn, `COc1cc(Cl)c(C)cc1NC(=O)CSCC#N` registered a z-score of -0.0531.

`CCOC(=O)CCCCC(=O)c1[nH]c(=O)[nH]c1Cn1ccnc1` had a z-score of -0.187.

`CC(C)CCNC(=O)C(Cc1ccccc1)NS(=O)(=O)c1ccc2c(c1)c(=O)n(C)c(=O)n2C` (configuration not stated) showed a z-score of -0.042.

Compound `COc1ccccc1NC(=O)CSc1nnc(-c2ccoc2C)n1CC1CCCO1` (configuration not stated) displayed a z-score of 0.0563.

On to `COc1ccccc1N1CCN(C(CNS(=O)(=O)c2ccccc2)c2cccnc2)CC1` (configuration not stated), for which the z-score was 0.243.

`CCCCONc1ncnc2nonc12` registered a z-score of -0.0533.

Take `COc1cccc(-n2c(Cc3cc(=O)[nH]c(=O)[nH]3)nnc2SCC(=O)NC2CCCC2)c1`: the z-score is -0.174.

Take `Cc1ccc(NC(=O)C2CCN(C(=O)NC3CCCCC3)CC2)c(C)c1`: the z-score was -0.299.

On to `COc1cc(/C=C(\C#N)c2ccccn2)ccc1OCc1ccccc1`, for which the z-score was -0.538.

With `O=C(CCCNS(=O)(=O)c1cccc2nsnc12)NCc1ccccc1`, the z-score is -0.246.

`Cc1cc(NC(=O)CSc2nnc(COc3ccccc3)o2)no1` returned a z-score of -0.183.

The compound `CCOC(=O)c1c(NC(=O)Cn2cc([N+](=O)[O-])cn2)sc2c1CCC2` had a z-score of -0.237.

The compound `COc1ccc(C(F)(F)F)cc1N/C=C\c1nnnn1-c1ccccc1` gave a z-score of -0.227.

Compound `O=C(O)CSC1c2ccccc2C(=O)N1c1ccccc1` (configuration not stated) yielded a z-score of -0.372.

With `COc1ccc(C2CC3(CC(C)(C)NC(=O)N3)Oc3cc(O)ccc32)cc1` (configuration not stated), the z-score was -0.213.

In turn, `CC1(C)NC(=O)N(CC(=O)O)C1=O` came in with a z-score of -0.182.

In turn, `CC(=O)c1ccc(NC(=O)N2CCN(c3cccc(Cl)c3)CC2)cc1` yielded a z-score of -0.649.

Turning to `Cc1ccc(OCC(=O)NNC(=O)CCC(=O)Nc2ccc(C)cc2C)cc1`, the z-score was -0.223.

In turn, `COc1cnc(-c2ccccn2)nc1Oc1ccc(Cl)c2ccccc12` returned a z-score of 0.173.

In the case of `CC(C)(C)c1ccc(C(=O)NNC(=O)C(=O)N2CCCCC2)cc1`, the z-score turned out to be 0.478.

Regarding `Cc1c(-c2c(C#N)c(N)nc3c2CCCCCC3)cnn1C`, the z-score was found to be 0.297.
